Reference: PubChem BioAssay AID485294 (National Center for Advancing Translational Sciences (NCATS), 2010)
About 150 (0.041%) of roughly 370,000 compounds were called active. The shares of active, inactive and inconclusive entries below differ from those in the screen. Calls come from the whole dose curve; as a rule, active = well fitted inhibition curve with a large enough effect; inconclusive = small, poorly fitted or top-dose-only effect; inactive = flat fitted curve, though single readings scatter. Potencies of inconclusive entries are left out as doubtful fits.
Note: nearly all actives have a fitted effect of over 25% in size.
Potency is the fitted concentration of half-maximal effect; tags give direction and shape of the fitted curve.

Each compound was assayed against Beta-lactamase (Escherichia coli (strain K12)) (UniProt P00811) (assay: qHTS Inhibitors of AmpC Beta-Lactamase (assay with detergent)). Conditions: AmpC hydrolysis of nitrocefin, absorbance 480 nm, 0.01% Triton; series mostly up to 114 µM.
UniProt P00811, sequence (P00811 whole entry, looked up): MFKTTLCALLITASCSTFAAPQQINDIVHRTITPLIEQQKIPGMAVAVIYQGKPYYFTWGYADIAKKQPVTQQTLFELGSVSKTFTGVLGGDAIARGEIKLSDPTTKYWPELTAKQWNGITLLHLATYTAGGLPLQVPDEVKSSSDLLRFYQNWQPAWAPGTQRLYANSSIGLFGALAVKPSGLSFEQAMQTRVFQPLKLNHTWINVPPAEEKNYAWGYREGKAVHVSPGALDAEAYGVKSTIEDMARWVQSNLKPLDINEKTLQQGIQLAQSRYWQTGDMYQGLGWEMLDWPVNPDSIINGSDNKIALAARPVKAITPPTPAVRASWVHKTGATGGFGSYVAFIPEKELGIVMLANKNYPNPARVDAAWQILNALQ
Procedure, shortened: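 AmpC (5.3 nM in the dispensed reagent) in 20 mM phosphate pH 7.0 with 0.01% (detergent screen) or 0.0001% Triton X-100 was preincubated with compounds for 15 min at room temperature. Nitrocefin was then added from an 800 uM solution, and hydrolysis was followed at 480 nm.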
In the case of `COCC(=O)N(Cc1cc2cc(OC)ccc2[nH]c1=O)c1ccccc1`, the Potency is reported as inconclusive [inhibitor, single point].
For `O=CN1CCN(C(=O)CN2C(=O)c3ccccc3C2=O)CC1`, the Potency was inconclusive [inhibitor, full curve, poor fit].
For `COc1ccc(CCNC(=O)CSc2nc(-c3ccco3)cc(C(F)(F)F)n2)cc1`, the Potency was inconclusive [inhibitor, partial curve, poor fit].
`Cc1noc(C)c1CSCC(=O)N1CCN(c2ccc([N+](=O)[O-])cc2)CC1` was tested, and the Potency was inconclusive [inhibitor, full curve, poor fit].
In the case of `Cc1c(Br)c(C(=O)N2CCc3ccccc32)nn1C`, the Potency is reported as “inactive”.
`COc1cc(C)nc(SCC(N)=O)n1` was tested, and the Potency was inconclusive [inhibitor, partial curve].
In the case of `CCOc1ccc(C(=O)NC2CCN(C(=S)Nc3ccccc3C)CC2)cc1`, the Potency is reported as inconclusive [inhibitor, single point].
`CC(=O)c1cccc(NC(=O)c2sc(-n3nc(C)c(CCC(C)C)c3C)nc2C)c1` was tested, and the Potency was “inactive”.
`Cc1ccc(S(=O)(=O)NCCCNC(=O)c2ccccc2)cc1` was tested, and the Potency was inconclusive [inhibitor, full curve, poor fit].
`COc1cc2c3nnc(-c4ccccc4)c-3cn(Cc3ccccc3F)c2cc1OC` was tested, and the Potency was “inactive”.
`Cc1ccc(C)c(N2CCN(S(=O)(=O)CC34CCC(CC3=O)C4(C)C)CC2)c1` (configuration not stated) was tested, and the Potency was “inactive”.
With `CC(C)NC(=O)COc1ccc(S(=O)(=O)N2CCCC2)cc1` the Potency was “inactive”.
With `Cc1ccc(C)n1-c1cccc(N)c1` the Potency was inconclusive [inhibitor, full curve, poor fit].
With `COc1ccc(NC(=O)CCN2CCCC2)c(OC)c1` the Potency was inconclusive [inhibitor, partial curve].
`CCCC(=O)Nc1c2c(nn1-c1ccc(C)cc1)CS(=O)(=O)C2` was tested, and the Potency was “inactive”.
In the case of `CCOC(=O)/C(C#N)=C1/C=CNC(=O)N1`, the Potency is reported as inconclusive [inhibitor, full curve, poor fit].
With `Cn1c(=O)c2c(nc(N/N=C3\CCCc4ccccc43)n2Cc2ccc(F)cc2)n(C)c1=O` the Potency was inconclusive [inhibitor, full curve, poor fit].
In the case of `O=C(CSc1nnc(-c2ccccc2Br)o1)N1CCN(C(=O)c2ccco2)CC1`, the Potency is reported as inconclusive [inhibitor, full curve, poor fit].
`O=C(Nc1ccc(Cl)cc1Cl)c1cc2ccccc2o1` was tested, and the Potency was inconclusive [inhibitor, partial curve, poor fit].
`C=CC[n+]1c(-c2ccc(C)cc2)csc1Nc1ccc(NC(C)=O)cc1` was tested, and the Potency was “inactive”.
With `COc1ccc(NC(=S)N2CCCC2)cc1OC` the Potency was inconclusive [inhibitor, full curve, poor fit].
`CN(Cc1ccccc1)Cc1c(O)ccc2c(=O)c(-c3ccccc3)c(C(F)(F)F)oc12` was tested, and the Potency was “inactive”.
With `O=C(NCc1ccccn1)c1cc(-c2ccccc2)nc2ccccc12` the Potency was inconclusive [inhibitor, full curve].
In the case of `CCC(=O)N1CCN(c2ccccc2NC(=S)NC(=O)c2cccc([N+](=O)[O-])c2)CC1`, the Potency is reported as inconclusive [inhibitor, full curve].
In the case of `Cc1ccc(SCC(=O)Nc2oc(C)c3c(C)n[nH]c(=O)c23)cc1C`, the Potency is reported as inconclusive [inhibitor, full curve, poor fit].
For `CCOC(=O)C(NCc1ccccc1OC)(NC(=O)CC)C(F)(F)F` (configuration not stated), the Potency was “inactive”.
For `Cc1cc(OCC(=O)NCc2nc(-c3ccccc3)no2)c(C)cc1Br`, the Potency was inconclusive [inhibitor, full curve, poor fit].
In the case of `COc1ccc(CCNC(=O)Cn2c(=O)n(-c3ccc(OC)c(OC)c3)c(=O)c3ccccc32)cc1OC`, the Potency is reported as “inactive”.
For `CCCCn1cnc2cc(NCc3cccc(OC)c3O)ccc21`, the Potency was inconclusive [inhibitor, full curve].
In the case of `O=C1CCCN2N=C(SCC(=O)Nc3ccc(F)cc3F)SC2=N1`, the Potency is reported as “inactive”.
For `Cc1ccc(NC(=O)/C(C#N)=C/c2ccccc2Cl)cc1C`, the Potency was “inactive”.
With `COc1cc(OC)c(C2SCCCS2)cc1OC` the Potency was inconclusive [inhibitor, partial curve, poor fit].
In the case of `CCCc1nnc(NC(=O)CC(C)c2ccccc2)s1` (configuration not stated), the Potency is reported as inconclusive [inhibitor, full curve, poor fit].
For `Cc1occc1C(=O)NNC(=O)c1ccccc1Br`, the Potency was inconclusive [inhibitor, full curve, poor fit].
With `CCOc1ccccc1-c1nn2c(Cc3ccccc3)nnc2s1` the Potency was inconclusive [inhibitor, full curve, poor fit].
In the case of `CCNCc1cc([N+](=O)[O-])ccc1OCC`, the Potency is reported as “inactive”.
`COC(=O)C1CCN(C(=O)COC(=O)c2cc([N+](=O)[O-])ccc2N2CCOCC2)CC1` was tested, and the Potency was inconclusive [inhibitor, full curve, poor fit].
In the case of `Cc1cccc(Cn2c(=O)n(CCCCC(=O)NCc3ccc4c(c3)OCO4)c(=O)c3ccccc32)c1`, the Potency is reported as “inactive”.
For `CC(=O)NS(=O)(=O)c1ccc(NC(=O)CSc2ccc(Cl)cc2)cc1`, the Potency was “inactive”.
For `CN1CCN(S(=O)(=O)c2ccc(NC(=O)c3ccc(F)cc3)cc2)CC1`, the Potency was inconclusive [inhibitor, single point].
With `O=C(NC(=S)Nc1ccccc1N1CCCC1)c1ccccc1Br` the Potency was “inactive”.
With `O=C(C1Cc2ccccc2CN1C(=O)c1ccccc1)N1CCN(c2ccccc2)CC1` (configuration not stated) the Potency was “inactive”.
With `O=C1CCC/C1=C\c1ccccc1` the Potency was “inactive”.
For `O=C1NC[C@H](c2ccccc2)N(CCC23CC4CC(CC(C4)C2)C3)C1=O`, the Potency was “inactive”.
In the case of `CC(=O)Nc1ccc(-c2nnn(CC(=O)c3ccccc3)n2)cc1Cl`, the Potency is reported as inconclusive [inhibitor, full curve, poor fit].
In the case of `O=C(N/N=C/c1c[nH]c2ccccc12)c1ccncc1`, the Potency is reported as “inactive”.
For `CCOc1cc(CNC(=O)c2ccc3c(c2)nc2n3CCCCC2)ccc1OC`, the Potency was “inactive”.
